Screen size: about 340,000 compounds; about 6,900 (2%) were called active. No stated cut-off is given here; in the data, active means inhibition above about 30%; inactive means below that, where a call was filed. The list shows a part of the results, in another mix than the full data. The source gives no active or inactive call for entries shown without one.
target: D(2) dopamine receptor (Homo sapiens) (UniProt P14416); assay: HTS Assay for Allosteric Antagonists of the Human D2 Dopamine Receptor: Primary Screen for Antagonists; details: HEK293 TREx D2 cells, calcium flux, dopamine EC80; at 10 µM; stronger effect = higher value; further: 0% is about no effect
Method in brief: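 Read-out: kinetic calcium fluorescence (1 cycle/s) in inducible HEK293 T-REx D2 cells after an EC80 dopamine addition that followed 180 s compound preincubation. Loss of the dopamine response indicates antagonism.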

UniProt P14416, sequence (P14416 whole entry, looked up): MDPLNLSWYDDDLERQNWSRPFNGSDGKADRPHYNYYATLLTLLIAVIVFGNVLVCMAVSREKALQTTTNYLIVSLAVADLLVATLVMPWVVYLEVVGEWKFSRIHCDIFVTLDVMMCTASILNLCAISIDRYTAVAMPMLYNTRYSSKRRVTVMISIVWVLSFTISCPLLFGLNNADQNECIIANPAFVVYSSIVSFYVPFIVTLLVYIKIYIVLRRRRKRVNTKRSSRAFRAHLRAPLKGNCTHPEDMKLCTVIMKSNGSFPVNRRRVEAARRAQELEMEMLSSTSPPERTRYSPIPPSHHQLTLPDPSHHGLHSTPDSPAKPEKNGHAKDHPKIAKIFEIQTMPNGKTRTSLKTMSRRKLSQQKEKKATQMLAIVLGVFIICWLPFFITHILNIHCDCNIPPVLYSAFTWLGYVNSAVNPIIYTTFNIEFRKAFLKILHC

Row | SMILES | inhibition
1 | CC(=O)c1ccc(N2C(=O)N(Cc3cccc(C(F)(F)F)c3)c3ccccc3S2(=O)=O)cc1 | -21.7%
2 | Cc1nc2scc(C)n2c(=O)c1S(=O)(=O)NCc1ccccc1Cl | 0.495%
3 | Cc1ccc(CS(=O)(=O)c2cn(CC(=O)N(C)c3ccccc3)c3ccccc23)cc1 | -6.61%
4 | CC1=C(C(=O)OC2CCCC2)C(c2ccc(F)cc2F)CC(=O)N1 (stereo not drawn) | -3.95%
5 | CCOc1cc(C(=O)Nc2ccc3oc(-c4ccc(F)cc4Cl)nc3c2)cc(OCC)c1OCC | 4.58%
6 | COc1ccc(N(Cc2cccs2)C(=O)c2ccccc2C)cc1 | -13.6%
7 | Cc1ccc(NC(=O)c2cc(C)nn2-c2ccccc2)cc1 | 11.5%
8 | COc1ccccc1CNC(=O)CC1N=C2c3ccccc3N=C(SCC(=O)Nc3ccc(F)cc3)N2C1=O (stereo not drawn) | 0.473%
9 | COc1ccc(S(=O)(=O)Nc2cccc(-c3ccc(N4CCOCC4)nn3)c2)cc1F | 9.5%
10 | O=C(Cn1nc(-c2ccccc2)ccc1=O)NCc1ccc(F)cc1Cl | -0.0872%
11 | COc1ccccc1Nc1nn2c(=O)c3ccc(C(=O)N4CCC(C)CC4)cc3nc2s1 | -4.48%
12 | O=C(c1nc(-c2ccc(Cl)cc2)n2c1CCCCC2)N1CCN(c2ccccc2F)CC1 | 6%
13 | COc1cc(Cl)c(C)cc1NC(=O)CCc1c(C)nc2cc(-c3cccc(F)c3)nn2c1C | 17.3%
14 | Cc1ccccc1NC(=O)c1c(NC(=O)C(C)Oc2cccc(Cl)c2)sc2c1CCCC2 (stereo not drawn) | 12.3%
15 | CCc1c(C)sc2c1CCN(C(=O)Nc1ccccc1C(F)(F)F)C2c1ccccc1 (stereo not drawn) | -18.2%
16 | O=C(CCn1cnc2onc(-c3ccc(F)cc3)c2c1=O)N1CCN(c2ccc(F)cc2)CC1 | -3.4%
17 | CCn1c(C(=O)N2CCCC(C(=O)NCCCOC)C2)cc2sccc21 (stereo not drawn) | 1.51%
18 | COc1ccc2c(c1)cc1c(=O)n(CC(=O)NC3CCCCC3)nc(C)n12 | 13.4%
19 | Cc1ccc(NC(=O)c2oc3ccccc3c2NC(=O)Cc2cccs2)cc1 | -11.7%
20 | CCOc1ccccc1NC(=O)Nc1nnc(N(C)Cc2ccccc2)s1 | -2.5%
21 | CCCCNCCCOc1cc(Cl)ccc1Cl | active: 56%
22 | CCc1ccc(NC(=O)CC2C(=O)N(c3cccc(OC)c3)C(=O)N2Cc2ccco2)cc1 (stereo not drawn) | 4.47%
23 | Cc1ccc(C(Nc2ccccn2)c2ccc3cccnc3c2O)cc1 (stereo not drawn) | -12.9%
24 | COc1ccccc1NC(=O)CCS(=O)(=O)c1ccc2nc(C)sc2c1 | -3.21%
25 | Cc1cccc(COc2ccc(/C=C3/C(=O)N(C)C(=S)N3C)cc2)c1 | active: 30.5%

Row | SMILES | inhibition
26 | CC(=O)N1CCC(N(C(=O)Nc2ccc(C)c(F)c2)C(C)C)CC1 | 0.318%
27 | COc1cc(Cl)c(NS(=O)(=O)c2ccc3c(c2)CC(C)N3C(=O)C2CCC2)c(OC)c1 (stereo not drawn) | -3.13%
28 | CCOc1ccccc1N(CC)C(=O)Nc1cn(C)c(=O)c2ccccc12 | -9.96%
29 | COc1ccc(OCC(=O)Nc2ccc(C(=O)OCc3cc(=O)n4nc(C)sc4n3)cc2)cc1 | 10.8%
30 | Cc1ccc(/C=C/c2onc(C)c2S(=O)(=O)N2CCC(C(=O)N3CC(C)Oc4ccccc43)CC2)cc1 (stereo not drawn) | 7.98%
31 | CCCCCn1c(=O)[nH]c2cc(C(=O)N3CCN(c4ccccc4)CC3)ccc2c1=O | 1.87%
32 | COc1ccc(OC)c(NC(=O)CSc2nncc(=O)n2N)c1 | active: 36%
33 | COc1ccc(N2CCN(C(CNC(=O)CC(C)C)c3ccc4c(c3)OCO4)CC2)cc1 (stereo not drawn) | -11.7%
34 | CCc1cccc(CC)c1NC(=O)Cn1nnc2sc(-c3ccccc3)cc2c1=O | -0.0959%
35 | COc1ccc(-c2nc(CS(=O)CC(=O)NCc3ccc(F)cc3)c(C)o2)cc1OC (stereo not drawn) | -17.4%
36 | Cc1ccc(-c2nc3ccc(Cl)cn3c2Nc2ccc3c(c2)OCCO3)o1 | 6.05%
37 | CCCCOc1ccc(C2=NC(c3ccncc3)=Nc3ccc(Br)cc3N2)cc1 | 14.5%
38 | CCOC(=O)N1CCN(S(=O)(=O)N2CCCC(C(=O)NCc3cc(OC)ccc3OC)C2)CC1 (stereo not drawn) | -25.9%
39 | Cc1nc(CC(=O)Nc2ccc(C)c(C)c2)cs1 | -18.4%
40 | CCc1ccc(-n2c(SC(CC)C(=O)N(CC)CC)nc3n[nH]c(C)c3c2=N)cc1 (stereo not drawn) | 18.8%
41 | COc1ccc(N2CC(NC(=O)/C=C\c3ccc(OC)c(OC)c3)CC2=O)cc1 (stereo not drawn) | -14.2%
42 | CCOCCCNC(=O)C1CCCN(Cc2nc(-c3ccc(CC)cc3)oc2C)C1 (stereo not drawn) | 2.92%
43 | CCn1ccc2cc(S(=O)(=O)N3CCCN(C(=O)Nc4ccccc4OC)CC3)ccc21 | 28%
44 | CCc1ccc(OCC(=O)N(Cc2cccs2)c2ccc(Cl)cc2)cc1 | 6.46%
45 | COc1ccc(NC(=O)C2CCCN(CCCc3ccccc3)C2)cc1OCC(C)C (stereo not drawn) | active: 79.7%
46 | CCN(Cc1ccccc1)Cc1c(O)ccc2c(=O)c(-c3ccccc3OC)c(C(F)(F)F)oc12 | 17.2%
47 | Cc1cccc(OCCSc2nc3ccccc3n2CC(=O)N2CCCCC2)c1C | 14.4%
48 | CCOC(=O)c1ccc(N2CCN(c3cc(Cl)ccc3C)CC2)c(NC(=O)Nc2cccc(OC)c2)c1 | -10.3%
49 | Cc1c(C)n(Cc2ccccc2)c2ccc(C(=O)NC(C)c3ccccc3)cc12 (stereo not drawn) | 4.86%
50 | Cc1ccc(Cn2c(CNS(=O)(=O)c3c(C)cc(C)cc3C)nc3cccnc32)cc1 | 27.7%

Row | SMILES | inhibition
51 | CC(=O)Nc1nonc1-c1nnc(SCC(=O)Nc2ccc(F)cc2F)n1-c1ccccc1 | -9.04%
52 | Cc1cccc(N2CCN(C(=O)c3cn(C4CCCCC4)c(=O)c4c3c3ccccc3n4C)CC2)c1C | 10.9%
53 | Cc1cc2oc(=O)c(CC(=O)NCCc3ccccc3)c(C)c2c2occ(C(C)(C)C)c12 | -11.4%
54 | COc1cc2c(cc1NC(=O)COc1cc(C)ccc1C)oc1ccccc12 | -2.22%
55 | CCCOC(=O)c1c(C)oc2c1cc(NS(=O)(=O)c1ccc(OCC)cc1)c1ccccc12 | -2.29%
56 | COc1ccc(-c2cn3c(n2)sc2cc(C(=O)NC4CCCc5ccccc54)ccc23)cc1 (stereo not drawn) | 6.01%
57 | Cc1cc(C(=O)O)c2c(=O)n(C)c(=O)n(C)c2n1 | 4.79%
58 | CCN(C(=O)CCc1nc(-c2ccc(C)cc2)no1)c1cc(C)ccc1C | 7.92%
59 | CCCCN(C)CCCNC(=O)c1ccc2nc(N3CCCCC3)sc2c1 | 4.4%
60 | Cc1cccc(NC(=O)C2CCCN(S(=O)(=O)c3cccc4nonc34)C2)c1C (stereo not drawn) | 5.34%
61 | C/C(=N/NC(=O)c1ccc(Br)o1)c1ccncc1 | active: 38.2%
62 | CCN1CCC(N(Cc2ccc3c(c2)OCO3)C(=O)Nc2cc(Cl)ccc2C(=O)OC)CC1 | -23%
63 | Clc1ccc2c(c1)C(N1CCNCC1)Cc1ccccc1S2 (stereo not drawn) | active: 98.5%
64 | CCCCN(CCCNC(=O)CN1N=C(c2ccccc2)CCC1=O)c1ccccc1 | -9.01%
65 | O=C(COc1ccccc1Cl)Nc1nc2c(s1)CCCC2 | -1.06%
66 | CCC(=O)N1CCc2cc(S(=O)(=O)CCC(=O)NCCc3ccc(S(N)(=O)=O)cc3)ccc21 | active: 32.4%
67 | CCOc1cc(C2C(C(=O)OC)=C(C)NC3=C2C(=O)c2ccccc23)c(Br)cc1OC (stereo not drawn) | 7.03%
68 | CCOCCCNC(=O)Cn1nc(C)n2c(cc3cc(C)ccc32)c1=O | -7.33%
69 | Cc1cc(OCC(O)CN2CCc3ccccc3C2)ccc1Cl (stereo not drawn) | active: 79.2%
70 | Cc1ccc(C)c(N2CCN(C(=O)Cn3c(=O)c4cccn4c4ccc(F)cc43)CC2)c1 | 7.77%
71 | Cc1ccc(NC(=O)CSCn2nnc3c(=O)[nH]c(Cc4ccc(F)cc4)nc32)c(C)c1 | 4.48%
72 | CCCCC(CC)CNC(=O)CCCc1nnc2n(CCC)c(=O)c3sccc3n12 (stereo not drawn) | 2.32%
73 | Cc1cccc(N2CCN(C(=O)c3ccc4c(c3)N(Cc3ccccc3F)C(=O)c3ccccc3S4=O)CC2C)c1 (stereo not drawn) | 0.373%
74 | COc1cc2c(=O)c(C(=O)c3ccc(C)c(C)c3)cn(Cc3ccccc3)c2cc1OC | 3.13%
75 | COc1ccc(-c2cc3nc(C)c(CCC(=O)N4CCN(c5ccccc5)CC4)c(C)n3n2)c(OC)c1 | 5.76%

Row | SMILES | inhibition
76 | Cc1cc(C)c2nc(NC(=O)c3ccc(S(=O)(=O)N4CCCC4)cc3)sc2c1 | 5.67%
77 | CC(=O)Nc1nonc1-c1nnc(SCc2ccc(F)cc2)n1C | 3.44%
78 | CCCCSc1nnc2n(-c3cccc(C)c3)c(=O)c3c4c(sc3n12)CCCC4 | 22.4%
79 | COc1ccc(NC(=O)COCc2cc(-c3ccco3)on2)cc1 | -5.57%
80 | Clc1ccc(-c2csc(=Nc3ccccc3)n2Cc2ccc3c(c2)OCO3)cc1 | 20.1%
81 | Fc1ccccc1Oc1ncnc2c1oc1ccccc12 | -4.06%
82 | CCOC(=O)Cn1ncc(-c2ccccc2)c1N | active: 56.9%
83 | COc1ccc(NC(=O)CSc2nc3ccccc3[nH]2)cc1 | 5.52%
84 | Cc1ccc2nc(COc3ccc(NC(=O)COc4ccccc4F)cc3)cc(=O)n2c1 | -11.2%
85 | Cc1cccc(OCc2nc(C#N)c(NCc3ccccc3Cl)o2)c1 | 13.4%
86 | COCCNC(=O)CSc1c2c(nc3cc(Cl)ccc13)CCCC2 | 5.22%
87 | CCCc1nn2c(=O)cc(COC(=O)c3cccc(NC(=O)CCc4ccccc4)c3)nc2s1 | 9.7%
88 | NCCCCCc1nnc(SCc2ccc(F)cc2)o1 | -6.77%
89 | COCCCNC(=O)c1ccc2nc(Cc3ccc(OC)cc3)oc2c1 | 11%
90 | CCOc1ccc(CNC(=O)C2CCN(S(=O)(=O)N3CCCCC3)CC2)cc1 | 5.24%
91 | CCn1cc(S(=O)(=O)c2ccc(OC)cc2)c(=O)c2cc(F)c(N3CCC(C)CC3)cc21 | -12.3%
92 | Cc1ccc(CN(Cc2ccco2)C(=O)COc2c(C)cc(C)cc2C)cc1 | 7.19%
93 | Oc1ccc(-c2nc3ccccn3c2Nc2ccc3c(c2)OCCO3)cc1 | 0.905%
94 | CCCCNS(=O)(=O)c1ccc2nc(-c3cccnc3)cc(C(=O)NCCC)c2c1 | 21.9%
95 | Cn1c(SCc2ccccc2)nnc1-c1cnccn1 | active: 37.1%
96 | Cc1ccc(OCC(=O)Nc2ccccc2C(=O)OCc2cc(=O)n3nc(C4CC4)sc3n2)cc1 | 12.3%
97 | O=C(c1cccs1)N(Cc1cccnc1)c1nc2ccc(F)cc2s1 | -19.4%
98 | CC1CCN(C(=O)c2c(NC(=O)c3ccccc3F)sc3c2CCC(C(C)(C)C)C3)CC1 (stereo not drawn) | 15.9%
